{
  "source": "patent US20230086069A1",
  "about": "(SYSTIMMUNE, published 2023)",
  "target": "T1, human CD19 on cells (CD20+ B cells of human PBMC; Raji lymphoma cells) (human, UniProt P15391 20-556)",
  "T1 sequence (looked up)": "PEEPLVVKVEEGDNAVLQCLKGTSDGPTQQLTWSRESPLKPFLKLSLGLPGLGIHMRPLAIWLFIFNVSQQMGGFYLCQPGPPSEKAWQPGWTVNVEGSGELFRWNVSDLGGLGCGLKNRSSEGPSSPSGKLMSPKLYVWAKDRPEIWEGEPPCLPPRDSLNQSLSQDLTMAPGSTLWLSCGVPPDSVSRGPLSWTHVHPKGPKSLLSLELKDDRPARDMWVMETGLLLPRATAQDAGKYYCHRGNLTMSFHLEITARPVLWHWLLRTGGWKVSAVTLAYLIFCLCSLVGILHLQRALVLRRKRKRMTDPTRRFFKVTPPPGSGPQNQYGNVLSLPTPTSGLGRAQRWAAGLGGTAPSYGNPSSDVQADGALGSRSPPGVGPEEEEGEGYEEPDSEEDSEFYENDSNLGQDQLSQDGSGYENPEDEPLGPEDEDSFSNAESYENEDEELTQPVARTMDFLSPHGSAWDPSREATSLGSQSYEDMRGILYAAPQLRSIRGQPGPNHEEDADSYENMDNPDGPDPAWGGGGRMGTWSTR",
  "test": "cell-based or functional assay",
  "data": [
    {"binder": "SI-38E17 (tetraGNC antibody, human CD19 binding domain 21D4 at the Fab region, D2) (other, also called control antibody; a human anti-CD19 antibody (21D4)) heavy: DVVMTQSPSTLSASVGDRVTINCQASESISSWLAWYQQKPGKAPKLLIYEASKLASGVPSRFSGSGSGTEFTLTISSLQPDDFATYYCQGYFYFISRTYVNSFGGGTKVEIKGGGGSGGGGSGGGGSGGGGSEVQLVESGGGLVQPGGSLRLSCAASGFTISTNAMSWVRQAPGKGLEWIGVITGRDITYYASWAKGRFTISRDNSKNTLYLQMNSLRAEDTAVYYCARDGGSSAITSNNIWGQGTLVTVSSGGGGSGGGGSEVQLVQSGAEVKKPGESLKISCKGSGYSFSSSWIGWVRQAPGKGLEWMGIIYPDDSDTRYSPSFQGQVTISADKSIRTAYLQWSSLKASDTAMYYCARHVTMIWGVIIDFWGQGTLVTVSSASTKGPSVFPLAPSSKSTSGGTAALGCLVKDYFPEPVTVSWNSGALTSGVHTFPAVLQSSGLYSLSSVVTVPSSSLGTQTYICNVNHKPSNTKVDKRV[omitted - human IgG1 Fc with changes]GGGGSGGGGSEVQLLESGGGLVQPGGSLRLSCAASGFSFSSGYDMCWVRQAPGKGLEWIACIAAGSAGITYDANWAKGRFTISRDNSKNTLYLQMNSLRAEDTAVYYCARSAFSFDYAMDLWGQGTLVTVSSGGGGSGGGGSGGGGSGGGGSDIQMTQSPSTLSASVGDRVTITCQASQSISSHLNWYQQKPGKAPKLLIYKASTLASGVPSRFSGSGSGTEFTLTISSLQPDDFATYYCQQGYSWGNVDNVFGGGTKVEIKGGGGSGGGGSRSLVESGGGLVQPGGSLRLSCTASGFTISSYHMQWVRQAPGKGLEYIGTISSGGNVYYASSARGRFTISRPSSKNTVDLQMNSLRAEDTAVYYCARDSGYSDPMWGQGTLVTVSSGGGGSGGGGSGGGGSGGGGSDVVMTQSPSSVSASVGDRVTITCQASQNIRTYLSWYQQKPGKAPKLLIYAAANLASGVPSRFSGSGSGTDFTLTISDLEPGDAATYYCQSTYLGTDYVGGAFGGGTKVEIK light: AIQLTQSPSSLSASVGDRVTITCRASQGISSALAWYQQKPGKAPKLLIYDASSLESGVPSRFSGSGSGTDFTLTISSLQPEDFATYYCQQFNSYPFTFGPGTKVDIKRTVAAPSVFIFPPSDEQLKSGTASVVCLLNNFYPREAKVQWKVDNALQSGNSQESVTEQDSKDSTYSLSSTLTLSKADYEKHKVYACEVTHQGLSSPVTKSFNRGEC", "values": [
      {"measurement": "EC50 (pM), re-directed T cell cytotoxicity: cytolysis of Raji cells by human CD8 T cells", "value": 2.1, "unit": "pM"}
    ]}
  ]
}
